Assay results published in the supplement of paper PMC3334620.
Whole data set: some 33,000 sequences, median “E-score (-0.5 to 0.5)” near -0.043, cut for the highest 2% near 0.37. Some of the results follow.

target: T1, Upc2 (UniProt Q12151); assay: PBM E-score (8-mer binding enrichment) (E-score (-0.5 to 0.5)); higher = stronger / more preferred TF binding; most listed sequences are background and not binding sites; conditions: protein concentration: 200 nM; construct: GST-full length
T1 sequence: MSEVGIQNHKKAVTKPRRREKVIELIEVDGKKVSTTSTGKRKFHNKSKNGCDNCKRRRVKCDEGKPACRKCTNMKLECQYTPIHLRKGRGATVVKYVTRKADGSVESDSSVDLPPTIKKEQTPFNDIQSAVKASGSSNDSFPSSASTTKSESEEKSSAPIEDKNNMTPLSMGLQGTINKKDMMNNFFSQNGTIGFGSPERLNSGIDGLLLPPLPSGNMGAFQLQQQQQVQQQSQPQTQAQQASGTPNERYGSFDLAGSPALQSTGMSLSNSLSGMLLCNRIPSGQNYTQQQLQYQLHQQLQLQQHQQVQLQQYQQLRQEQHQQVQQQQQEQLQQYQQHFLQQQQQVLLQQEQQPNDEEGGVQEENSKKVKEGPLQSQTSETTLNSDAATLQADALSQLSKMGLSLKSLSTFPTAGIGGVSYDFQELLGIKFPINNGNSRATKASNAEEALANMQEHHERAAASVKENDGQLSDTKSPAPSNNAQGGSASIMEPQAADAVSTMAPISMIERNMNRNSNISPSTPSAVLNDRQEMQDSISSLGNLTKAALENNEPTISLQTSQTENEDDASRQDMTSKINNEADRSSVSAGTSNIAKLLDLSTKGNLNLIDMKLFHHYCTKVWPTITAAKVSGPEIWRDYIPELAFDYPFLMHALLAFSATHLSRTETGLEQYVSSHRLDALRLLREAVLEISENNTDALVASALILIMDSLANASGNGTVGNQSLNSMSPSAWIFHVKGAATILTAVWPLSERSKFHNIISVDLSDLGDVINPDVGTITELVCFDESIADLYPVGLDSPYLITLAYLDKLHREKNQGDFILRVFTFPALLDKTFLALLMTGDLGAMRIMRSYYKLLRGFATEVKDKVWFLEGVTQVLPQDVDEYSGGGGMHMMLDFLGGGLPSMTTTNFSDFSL
Outline: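 For each ungapped eight-base word taken together with its reverse complement, the Universal PBM Analysis Suite assigned an E-score. Binding data came from GST-tagged yeast transcription factors, applied at about 100-200 nM, on universal all-10-mer Agilent arrays made double-stranded by primer extension. Fluorescent anti-GST marked bound protein, and scans were normalised with masliner.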

Question: With ATGGAAAC as the sequence, how does the “PBM E-score” value read?
Answer: -0.158

Question: CACTGGGG was tested. Which “PBM E-score” value did it give?
Answer: -0.271

Question: For CAGACAAA, which “PBM E-score” value is on record?
Answer: 0.0499

Question: With GACTGCCC as the sequence, how does the “PBM E-score” value read?
Answer: -0.164

Question: With GATGGAGC as the sequence, how does the “PBM E-score” value read?
Answer: -0.112

Question: AAGGCTAA was tested. Which “PBM E-score” value did it give?
Answer: 0.0868

Question: Which “PBM E-score” value does the source give for GAAAGCAC here?
Answer: 0.084

Question: ATGAATCG was tested. Which “PBM E-score” value did it give?
Answer: 0.157

Question: With GCAGTGGA as the sequence, how does the “PBM E-score” value read?
Answer: -0.123

Question: Which “PBM E-score” value does the source give for ACACTTAG here?
Answer: -0.116

Question: How did the “PBM E-score” value turn out when AGCGGGAC was run?
Answer: -0.268

Question: With GATTACGA as the sequence, how does the “PBM E-score” value read?
Answer: 0.334

Question: How did the “PBM E-score” value turn out when CGGCTGAG was run?
Answer: -0.216

Question: How did the “PBM E-score” value turn out when CTCCCGAG was run?
Answer: 0.0107

Question: Which “PBM E-score” value does the source give for CGAGTGCA here?
Answer: 0.143

Question: How did the “PBM E-score” value turn out when AGCTTATC was run?
Answer: -0.132

Question: GCGGTGGA was tested. Which “PBM E-score” value did it give?
Answer: 0.0832

Question: With AGGCGGAT as the sequence, how does the “PBM E-score” value read?
Answer: -0.0686

Question: For CCTTACTC, which “PBM E-score” value is on record?
Answer: -0.0448

Question: For ATTGCGAC, which “PBM E-score” value is on record?
Answer: 0.143

Question: How did the “PBM E-score” value turn out when CACTTCTC was run?
Answer: 0.0285

Question: How did the “PBM E-score” value turn out when GGTGAGCA was run?
Answer: -0.182

Question: CATAGCAA was tested. Which “PBM E-score” value did it give?
Answer: -0.235

Question: How did the “PBM E-score” value turn out when CTCGTAAG was run?
Answer: 0.43

Question: With GCATGTAC as the sequence, how does the “PBM E-score” value read?
Answer: 0.177

Question: How did the “PBM E-score” value turn out when ACGCAGGC was run?
Answer: -0.0845

Question: For AAGTCCTG, which “PBM E-score” value is on record?
Answer: -0.298

Question: For TAAGGTGA, which “PBM E-score” value is on record?
Answer: -0.056

Question: With CGAAGTAG as the sequence, how does the “PBM E-score” value read?
Answer: 0.00964

Question: How did the “PBM E-score” value turn out when CTTTACGA was run?
Answer: 0.471

Question: CGGTACCA was tested. Which “PBM E-score” value did it give?
Answer: -0.0953

Question: Which “PBM E-score” value does the source give for ATATTAAA here?
Answer: 0.176

Question: How did the “PBM E-score” value turn out when AAAAAGGA was run?
Answer: -0.0656

Question: For TGTTAAAA, which “PBM E-score” value is on record?
Answer: 0.0512

Question: For CCTGAAGC, which “PBM E-score” value is on record?
Answer: -0.175

Question: CTCAGGTA was tested. Which “PBM E-score” value did it give?
Answer: -0.136

Question: For ACGGCTCC, which “PBM E-score” value is on record?
Answer: 0.138

Question: For ATTAATAC, which “PBM E-score” value is on record?
Answer: 0.0259

Question: ACAACGAC was tested. Which “PBM E-score” value did it give?
Answer: 0.258

Question: How did the “PBM E-score” value turn out when GAGGCCTC was run?
Answer: 0.0386

Question: How did the “PBM E-score” value turn out when CCTAGGCA was run?
Answer: -0.319

Question: How did the “PBM E-score” value turn out when ACGTTAGC was run?
Answer: 0.152

Question: For ATGTACTG, which “PBM E-score” value is on record?
Answer: -0.177

Question: Which “PBM E-score” value does the source give for CAGTAAAC here?
Answer: 0.271

Question: For CTAGATAC, which “PBM E-score” value is on record?
Answer: 0.22

Question: How did the “PBM E-score” value turn out when AATCGGAG was run?
Answer: -0.185

Question: With CAAGACAA as the sequence, how does the “PBM E-score” value read?
Answer: -0.0401

Question: Which “PBM E-score” value does the source give for AAAACTAT here?
Answer: 0.0662

Question: With AGTAAAGA as the sequence, how does the “PBM E-score” value read?
Answer: -0.212

Question: Which “PBM E-score” value does the source give for AATTTATC here?
Answer: 0.131

Question: ACCTGGAC was tested. Which “PBM E-score” value did it give?
Answer: -0.117

Question: How did the “PBM E-score” value turn out when GAACACCC was run?
Answer: -0.0871

Question: Which “PBM E-score” value does the source give for GCGACAGA here?
Answer: 0.0959

Question: With TTGTACAA as the sequence, how does the “PBM E-score” value read?
Answer: -0.0904

Question: For AGGTAAAA, which “PBM E-score” value is on record?
Answer: -0.0257

Question: GCAGCTGA was tested. Which “PBM E-score” value did it give?
Answer: -0.0798

Question: Which “PBM E-score” value does the source give for AATCTTTG here?
Answer: -0.00611

Question: CTACAAAA was tested. Which “PBM E-score” value did it give?
Answer: -0.00752

Question: TGCTCCCA was tested. Which “PBM E-score” value did it give?
Answer: -0.102

Question: With GGGTGCCA as the sequence, how does the “PBM E-score” value read?
Answer: -0.0881

Question: CTAGGTCC was tested. Which “PBM E-score” value did it give?
Answer: -0.178

Question: Which “PBM E-score” value does the source give for AGCCACCG here?
Answer: -0.0677

Question: Which “PBM E-score” value does the source give for ATAGCAGA here?
Answer: -0.181

Question: Which “PBM E-score” value does the source give for AAGCCGCA here?
Answer: 0.00957

Question: How did the “PBM E-score” value turn out when AGCCAAGC was run?
Answer: -0.176

Question: For GCTCTCAA, which “PBM E-score” value is on record?
Answer: 0.00868

Question: GATTCCCC was tested. Which “PBM E-score” value did it give?
Answer: -0.214

Question: Which “PBM E-score” value does the source give for AACTGTTG here?
Answer: -0.239

Question: With GAAGTCGA as the sequence, how does the “PBM E-score” value read?
Answer: 0.0181

Question: How did the “PBM E-score” value turn out when ATGGTTTG was run?
Answer: -0.173

Question: For GAAAGGCC, which “PBM E-score” value is on record?
Answer: -0.0769

Question: Which “PBM E-score” value does the source give for GGGAACCA here?
Answer: -0.165

Question: CTGGTACA was tested. Which “PBM E-score” value did it give?
Answer: -0.0228

Question: With GGGGACTA as the sequence, how does the “PBM E-score” value read?
Answer: -0.213

Question: Which “PBM E-score” value does the source give for CAAAACAG here?
Answer: -0.00045

Question: Which “PBM E-score” value does the source give for ACAGCAAA here?
Answer: 0.0434

Question: Which “PBM E-score” value does the source give for CGTGGAAA here?
Answer: 0.105

Question: Which “PBM E-score” value does the source give for AGAGCATA here?
Answer: -0.0221

Question: How did the “PBM E-score” value turn out when CGCAGCAC was run?
Answer: -0.151

Question: AATATGGG was tested. Which “PBM E-score” value did it give?
Answer: -0.145

Question: With CTTGCTCA as the sequence, how does the “PBM E-score” value read?
Answer: -0.088

Question: ACATACAT was tested. Which “PBM E-score” value did it give?
Answer: 0.0735

Question: With GCCGGAAC as the sequence, how does the “PBM E-score” value read?
Answer: 0.068

Question: With ACATTTCA as the sequence, how does the “PBM E-score” value read?
Answer: -0.0769

Question: Which “PBM E-score” value does the source give for ATAGTTCA here?
Answer: 0.0788

Question: How did the “PBM E-score” value turn out when AATCCCGA was run?
Answer: 0.00486

Question: How did the “PBM E-score” value turn out when ATAATGCA was run?
Answer: 0.0533

Question: For ACACCCGG, which “PBM E-score” value is on record?
Answer: -0.0265

Question: How did the “PBM E-score” value turn out when AGTTGCAT was run?
Answer: -0.0885

Question: For CGTCTGCC, which “PBM E-score” value is on record?
Answer: -0.0857

Question: With ATTCTTGC as the sequence, how does the “PBM E-score” value read?
Answer: -0.0884

Question: Which “PBM E-score” value does the source give for GCTCGGAC here?
Answer: -0.027

Question: How did the “PBM E-score” value turn out when AAGACCAG was run?
Answer: -0.28

Question: For AACTACGC, which “PBM E-score” value is on record?
Answer: 0.0049

Question: With GTCCACAC as the sequence, how does the “PBM E-score” value read?
Answer: 0.0279

Question: For GATATATC, which “PBM E-score” value is on record?
Answer: -0.218

Question: ACTGAGTA was tested. Which “PBM E-score” value did it give?
Answer: -0.12

Question: Which “PBM E-score” value does the source give for CTGGAATA here?
Answer: -0.0632

Question: AACAGGCA was tested. Which “PBM E-score” value did it give?
Answer: -0.00891

Question: For GTCACCCA, which “PBM E-score” value is on record?
Answer: -0.224

Question: For CTTACACA, which “PBM E-score” value is on record?
Answer: -0.0896

Question: CGTTTAGA was tested. Which “PBM E-score” value did it give?
Answer: 0.466

Question: With GAGCGCCA as the sequence, how does the “PBM E-score” value read?
Answer: -0.114

Question: How did the “PBM E-score” value turn out when GTAGCAAC was run?
Answer: 0.0694

Question: For CACGTTGG, which “PBM E-score” value is on record?
Answer: -0.234

Question: For ACGGCGCG, which “PBM E-score” value is on record?
Answer: 0.259

Question: For ACTCCATA, which “PBM E-score” value is on record?
Answer: -0.144

Question: For ATAGCCGC, which “PBM E-score” value is on record?
Answer: -0.209

Question: With CGTCGACC as the sequence, how does the “PBM E-score” value read?
Answer: 0.0651
